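Five concentrations, 48 hours, 96-well plates. At the GI50, growth is halved. Definition used: TGI = concentration required for complete inhibition of growth.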
Tested on: NCI-H322M lung
Assay: inhibition of tumour cell growth, NCI panel, 48 h

Compound | GI50 | TGI
CCN(CC)c1ccc(/C=N/NC(=O)c2ccc(NS(C)(=O)=O)cc2)cc1 | 0.352 µM | > 100 µM
Oc1cccc2ccc(-c3nnc(SCc4ccc(O)c5ncccc45)o3)nc12 | 1.8 µM | > 100 µM
CC(C)=CCc1c2c(c(O)c3c1O[C@]14C(=C[C@@H]5C[C@H]1C(C)(C)O[C@@]4(C/C=C(/C)C(=O)O)C5=O)C3=O)CC(O)C(C)(C)O2 (some centres undefined) | 20.6 µM | 49.7 µM
COc1ccc(C2C(C#N)=C(N)Oc3c2sc2ccc(C)cc32)cc1 (centres undefined) | 14.4 µM | > 100 µM
[Cl][Ru].c1ccc(-c2cccc(-c3ccccn3)n2)nc1.c1ccc(-c2ccnc3c2ccc2c(-c4ccccc4)ccnc23)cc1 | 4.69 µM | 20.1 µM
N#Cc1c(NC(=O)c2ccc(F)c(Cl)c2)sc2c1CCC(=O)C2 | 3 µM | > 53.4 µM
Cc1ccc2c(n1)C(=O)C(Cl)=C(Nc1cccc(C(F)(F)F)c1)C2=O | 16.1 µM | 30.3 µM

Reference: PubChem BioAssay (NCI)
